# Reference: PubChem BioAssay AID624296 (National Center for Advancing Translational Sciences (NCATS), 2012)
# The campaign covered roughly 350,000 compounds. About 9,900 (2.8%) were called active. The shares of active, inactive and inconclusive entries below differ from those in the screen. Calls come from the whole dose curve; as a rule, active = well fitted activation curve with a large enough effect; inconclusive = small, poorly fitted or top-dose-only effect; inactive = no such curve, though single readings can be large or run the other way. No potency is given beside an inconclusive call; the fits are too rough.
# Test: A quantitative high throughput screen for small molecules that induce DNA re-replication in MCF 10a normal breast cells. For activity, positive = re-replication: % of control where 0% means no effect. Note: nearly all actives have a fitted effect of over 50% in size.
# Settings: MCF 10A DNA re-replication, Hoechst nuclear intensity, 48 h; activity, positive = re-replication: at 46.1 µM (top of the series)
# Potency is the fitted concentration of half-maximal effect; tags give direction and shape of the fitted curve.
SMILES,"activity, positive = re-replication",Potency
COc1ccc(CCNC(=O)CSc2nnc(Cc3cccn3C)n2C)cc1OC,inactive: 4.36%,–
COc1cccc(N2CCN(Cc3nc4ccccc4c(=O)[nH]3)CC2)c1,inactive: 12.7%,–
CC(C)(C)c1cc(-c2csc(Nc3ccccc3)[n+]2Cc2ccc(C(=O)O)cc2)cc(C(C)(C)C)c1O,–,"inconclusive [activator, partial curve, poor fit]"
CCC(C)Sc1cccc(-c2nc3ccc(C)cn3c2NC2CCCCC2)c1 (stereo not given),–,"inconclusive [activator, single point]"
O=C(NCCc1ccccc1)c1nccc2ccccc12,inactive: 0.395%,–
O=S(=O)(c1ccccc1)N1CCN(c2nc(-c3cccnc3)nc3ccccc23)CC1,–,"inconclusive [activator, single point]"
N#CCC1c2ccccc2CCN1C(=O)Nc1ccc(Cl)cc1 (stereo not given),inactive: 1.06%,–
Cc1cc(C)cc(C(=O)NCC(=O)N2CCN(C(c3ccccc3)c3ccccc3)CC2)c1,–,active: 16.4 µM
CCOc1ccc(Nc2oc(-c3cccs3)nc2C#N)cc1,–,"inconclusive [activator, single point]"
CCOc1cc(OCC)nc(S(C)(=O)=O)n1,–,"inconclusive [activator, single point]"
COc1ccc(CN(C)Cc2c(O)ccc3cc(Br)ccc23)cc1OC,–,"inconclusive [activator, single point]"
COc1cc(/C=N/NC(=O)c2cnn3c(C)cc(-c4ccccc4)nc23)ccc1O,inactive: 5.66%,–
NC(=O)C1CCN(CC(=O)Nc2cccc(C(=O)Nc3cccc(C(F)(F)F)c3)c2)CC1,–,"inconclusive [activator, single point]"
Cc1ccc(S(=O)(=O)Nc2cccc3cccnc23)c([N+](=O)[O-])c1,–,"inconclusive [activator, single point]"
Cc1c(-c2ccccc2)cnc2c(C)cccc12,–,"inconclusive [activator, single point]"
COc1ccc(C(=O)NCc2ccc(-c3nc4ccccc4s3)cc2)cc1OC,–,"inconclusive [activator, single point]"
COc1ccc(/C(N)=N/OC(=O)C2CCC(=O)N2S(=O)(=O)c2ccc(C)cc2)cc1OC (stereo not given),–,"inconclusive [activator, single point]"
O=C(NCC1COc2ccccc2O1)c1cccc(S(=O)(=O)N2CCN(c3ccccc3)CC2)c1 (stereo not given),–,"inconclusive [activator, partial curve, poor fit]"
CC/C(=C/c1sc2ccccc2[n+]1CC)SC,inactive: 5.15%,–
N#Cc1ccc(NC(=O)N2CCC(c3nc4c(nnn4Cc4cccc(Cl)c4)c(=O)[nH]3)CC2)cc1,–,"inconclusive [activator, partial curve, poor fit]"
Cc1[nH]c2ccccc2c1C(=O)C(=O)Nc1ccc2c(c1)OCO2,inactive: -3.48%,–
COc1ccccc1/C=C1\SC(=O)N(CCC(=O)NCCCn2ccnc2)C1=O,inactive: -0.144%,–
OCCC1CN(Cc2cccn2-c2cccnc2)CCN1CCc1ccccc1 (stereo not given),–,"inconclusive [activator, partial curve, poor fit]"

SMILES,"activity, positive = re-replication",Potency
CN1CCN(c2ccc(S(=O)(=O)N3CCCCC3)cc2NC(=O)/C=C/c2ccc(Cl)c([N+](=O)[O-])c2)CC1,–,"inconclusive [activator, single point]"
O=C(Nc1ccccc1F)C1CCN(S(=O)(=O)c2cccnc2)CC1,inactive: 1.54%,–
COc1ccc(N2CCN(c3nc4cc(C)ccc4cc3C=O)CC2)cc1,–,"inconclusive [activator, partial curve, poor fit]"
COc1ccc(-c2noc(CSc3nc(N)cc(=O)[nH]3)n2)cc1,–,"inconclusive [activator, single point]"
CC1CCN(S(=O)(=O)c2ccc(NC(=O)CN3CCCCCC3)cc2)CC1,–,"inconclusive [activator, single point]"
COc1ccc(NC(=O)C2=Cc3ccccc3OC2)cc1,inactive: 0.812%,–
Cc1ccc(C)c2[nH]c(=O)c(CN(Cc3cccnc3)C(=S)NCc3ccco3)cc12,–,"inconclusive [activator, single point]"
Cc1c(Cl)cccc1NC(=S)NC(=O)CCN1C(=O)c2ccccc2C1=O,inactive: -2.38%,–
Cc1ccc(C)c(NC(=O)c2cc(-c3ccccc3)nn2-c2ccccc2)c1,–,"inconclusive [activator, partial curve]"
CC(=O)OCC(=O)C1(O)CCC2C3CCC4C(OC(C)=O)C(=O)CCC4(C)C3C(=O)CC21C (stereo not given),inactive: 1.61%,–
COc1ccc(CCNC(=S)Nc2ccc(S(=O)(=O)Nc3ncccn3)cc2)cc1OC,inactive: 7.16%,–
N#CC1=C(c2ccc(-c3ccccc3)cc2)COC1=O,–,"inconclusive [activator, single point]"
O=C(O)C1CCCCC1C(=O)NCCc1cccc(Cl)c1 (stereo not given),inactive: 24.7%,–
Cc1ccc(C)n1-c1ccc(C(=O)Nc2ccccc2)cc1,–,"inconclusive [activator, single point]"
COc1cc(-c2nc3oc4ccccc4c(=O)c3c(=O)n2Cc2ccco2)cc(OC)c1OC,–,"inconclusive [activator, full curve]"
CN(CCOc1ccc(Cl)c(Cl)c1)Cc1ccccc1,–,"inconclusive [activator, single point]"
CCc1ccc(NC(=O)NCC2CCN(c3ccc(OC)cc3)C2)cc1 (stereo not given),–,"inconclusive [activator, single point]"
CC1(C)CN(c2ccccc2)N(C(=O)c2ccc(C#N)cc2)C1=O,–,"inconclusive [activator, single point]"
Cc1ccc(C)c(S(=O)(=O)N2CCN(C(=O)C3CCN(c4ncnc5sc(C)c(C)c45)CC3)CC2)c1,–,active: 20.6 µM
CCOc1ccc2ccccc2c1/C=N\NC(=O)OC,inactive: 12.9%,–
COC(=O)c1ccc(CN2C(=O)NC3(CCCCC3C)C2=O)o1 (stereo not given),–,"inconclusive [activator, single point]"
Cc1ccc(C(=O)NNS(=O)(=O)c2ccc(F)cc2)cc1,inactive: 15.7%,–
